The text below walks through data of ChEMBL document CHEMBL4888484, “Replenishing the malaria drug discovery pipeline: Screening and hit evaluation of the MMV Hit Generation Library 1 (HGL1) against asexual blood stage Plasmodium falciparum ,using a nano luciferase reporter read-out” (2022).

About 540 (0.36%) of roughly 150,000 compounds showed an effect of 50% or more. Some of the results follow.

The % Inhibition is the relative decrease from the control value, in per cent.

This assay has as its system Plasmodium falciparum. In words: Primary screen in NF54 nanoGlo assay, in single point, at 2uM, 72h; a lower Z score goes with more inhibition. Format: functional, Erythrocyte. The following applies: timepoint 72 hour.
Regarding `COc1ccc(-c2noc(NC3CCCC3CNC(=O)OC(C)(C)C)n2)cc1OC` (stereo not drawn), the “% Inhibition” value is -2% and the Z score stood at 0.41.
Take `COc1ccc(NC(=O)Nc2cc(C)cc(-n3nc4ccccc4n3)c2O)cc1`: the “% Inhibition” value was -4% and the Z score was found to be 0.48.
For `CN(Cc1ncc[nH]1)C(=O)NC[C@H]1CC[C@@H]2C[C@H]1C2(C)C`, the “% Inhibition” value is on record as -4% and the Z score worked out at 0.5.
For `NC(=O)[C@@H]1CCCCN1CCn1nc2ccccn2c1=O` the same measures were -4% and 0.57.
For `CCNC(=O)c1ccc(COc2ccc3c(c2)[C@H](c2ccc(F)cc2)N(C(=O)CC(C)C)CC3)o1`, the “% Inhibition” value is -7% and the Z score was found to be 0.66.
For the compound `Cc1cnc(CN2CCCC[C@@H]2CCO)cn1`, the “% Inhibition” value is on record as -5% and the Z score is on record as 0.84.
For `CN1CCN(C(=O)CNC(=O)c2cccc(Cl)c2)CC1` the same measures were 34% and -4.35.
For the compound `CC1(C)C[C@@H]1c1n[nH]c(=O)n1C1CCCC1`, the “% Inhibition” value is -3% and the Z score was 0.38.
With `CC[C@H](NC(=O)N1CCc2c(nnn2-c2ccccc2)C1)C1CCOCC1`, the “% Inhibition” value is reported as 9% and the Z score was -1.19.
Regarding `Cc1cc(NC(=O)CN2CCC(C)CC2c2ccco2)n(C)n1` (stereo not drawn), the “% Inhibition” value is -5% and the Z score was 0.99.
On to `O=C(Nc1ccccn1)[C@H]1CC(=O)N(c2n[nH]c3cc(Br)ccc23)C1`, for which the “% Inhibition” value was -9% and the Z score worked out at 1.21.
For the compound `O=C(Nc1ccccc1)Nc1ccc2nc(NC(=O)c3ccccc3)sc2c1`, the “% Inhibition” value was -7% and the Z score was determined as 1.23.
With `CC(C)(C)c1cc(C(=O)NS(=O)(=O)CC2CCOCC2)[nH]n1`, the “% Inhibition” value was 12% and the Z score is listed as -1.47.
Regarding `O=C1NC2(CCCC2)C(=O)N1CCN1CCc2ccccc2C1`, the “% Inhibition” value is 3% and the Z score was -0.27.
On to `Cn1c(=O)c2ccccc2n1CC1(C)COC1`, for which the “% Inhibition” value is listed as -1% and the Z score is on record as 0.21.
With `COCCCNCCOCCOc1ccc(Cl)cc1Br`, the “% Inhibition” value is listed as -15% and the Z score is 2.05.
Take `COc1ccc(-c2ccc([C@H]3OCCN[C@@H]3C)cc2)c(C#N)c1`: the “% Inhibition” value is given as 1% and the Z score is -0.2.
Regarding `CC(=O)N1CCN(CC2=NS(=O)(=O)c3ccccc3N2)CC1`, the “% Inhibition” value was 12% and the Z score is on record as -2.05.
As for `CC1(C)OC(=O)c2c1ccnc2N1CCO[C@@H](Cn2cccn2)C1`, the “% Inhibition” value is on record as -2% and the Z score is given as 0.29.
`Cc1nc(C(=O)NC[C@@]23CCC[C@@H]2OCC3)c(-c2ccccc2)o1`: the “% Inhibition” value turned out to be 0% and the Z score is reported as -0.01.
`C=CCNC(=O)[C@H](C)N(C)Cc1ccc(C)o1`: the “% Inhibition” value is reported as -13% and the Z score is 1.19.
`O=C(NCc1ccc(N2CCOCC2)cc1)c1cccs1`: the “% Inhibition” value was -24% and the Z score was found to be 2.23.
In the same order, the values of `O=C(CCC(=O)Nc1cccnc1)NCc1ccc2c(c1)OCO2` are 32% and -0.57.
Take `Cc1c(-c2ccc(F)cc2)[nH]c2ccc(CNC(=O)c3nnc4n3CCCC4)cc12`: the “% Inhibition” value is listed as 4% and the Z score is reported as -0.45.
